# In PubChem BioAssay AID445 (National Center for Advancing Translational Sciences (NCATS), 2006):
# The whole screen tested about 110,000 compounds, of which about 40 (0.04%) were called active. This list was built around the results that the source calls inconclusive (neither active nor inactive); the mix of calls is not that of the screen. Calls come from the whole dose curve; as a rule, active = well fitted curve in the direction sought with a large enough effect in the signal ratio (not every such curve was filed as active); inconclusive = small, poorly fitted or top-dose-only effect, or a change in a side signal; inactive = flat fitted curve, though single readings scatter; the % refers to the signal ratio. Potencies of inconclusive entries are doubtful fits and often do not repeat.
# Assay: IkB Signaling;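 for IkBa stabilization activation: 0% = basal untreated cells and 100% = reference inhibitor full response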
# Conditions: ABC-DLBCL IkBa-CBG/CBR dual luciferase ratio (green luciferase fused to IkBa over red control in OCI-Ly3 lymphoma cells), 4 h; IkBa stabilization activation: at 57.1 µM (top of the series), scaled: untreated 0%, proteasome inhibitor 100% unless noted
# In short: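 Curves were fitted separately to fusion (green), unfused (red) and ratio luminescence, then classed by r2, magnitude and activity. Cells: OCI-Ly3, 4 h compound plus doxycycline at 37C; 10 uM MG-132 defined full response.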
# Potency is the fitted concentration of half-maximal effect.
Structure (SMILES),IkBa stabilization activation,Potency
Cc1cc(NC(=O)c2ccc(NC(=O)CCS(=O)(=O)c3cccs3)cc2)ccc1Br,inconclusive: 10.6% [signal inhibitor],–
Cc1ccccc1-c1nc(CN2CCC(C(=O)N3CCC(C(N)=O)CC3)CC2)c(C)o1,inactive,–
Cc1c(CCNC(=O)C(C)(C)C)sc2nc(-c3ccc(F)cc3)nn12,inconclusive: 5.22% [signal inhibitor],–
CN(Cc1ccccc1)c1ncnc2c1cnn2-c1ccccc1,inactive,–
COc1ccccc1NC(=O)C1=C(C)Nc2nc(SCc3ccccc3)nn2C1c1ccncc1 (stereo not given),inconclusive: -0.00729% [signal inhibitor],–
COc1ccc(Cl)cc1NC(=O)CCn1c(=O)oc2ccccc21,inconclusive: 1.9% [signal inhibitor],–
Cc1ccccc1NC(=O)CSc1ccc(-c2cccs2)nn1,inactive,–
c1cc2c(cc1C1CCCCC1)c1c3n2CCN[C@H]3CCC1,inconclusive: -0.517% [signal inhibitor],–
CCN(C(=O)c1cc2c(s1)-c1ccccc1OC2)c1cccc(C(F)(F)F)c1,inconclusive: -1.6% [signal inhibitor],–
CN(C)C(=O)c1ccc(-c2nc(N3CCOCC3)c3ccccc3n2)cc1,"inactive: 0.0428% [at 11.4 µM, scaled: untreated 0%, proteasome inhibitor 100%]",–
Cc1ccc(CNC(=O)Cn2cccc2C(=O)c2ccccc2C)cc1,inconclusive: 6.95% [signal inhibitor],–
N#Cc1c[nH]n2c(NC3CCCC3)c(-c3ccc(Cl)cc3)nc12,inconclusive: 1.38% [signal inhibitor],–
O=C(CN1C(=O)C2CC=C(Cl)CC2C1=O)Nc1ccc(C(=O)O)cc1 (stereo not given),inactive,–
COc1ccc(C2N(c3cc(Cl)ccc3OC)C(=O)C3CCCN32)c(OC)c1 (stereo not given),–,"inconclusive: 6.31 µM [rising, single point]"
Cc1ccc(NS(=O)(=O)c2ccc(-c3cc(C)no3)cc2)c(Br)c1,inconclusive: 2.5% [signal inhibitor],–
CCn1c(=O)c(C)nn2c3ccccc3nc12,inactive,–
Cc1ccc(CCNC(=O)c2c(C)nn(-c3ccc(F)cc3)c2-n2cccc2)cc1,inconclusive: 0.861% [signal inhibitor],–
CC1=C(C(=O)Nc2ccccc2)C(c2ccc(O)cc2)n2nc(SCc3ccccc3)nc2N1 (stereo not given),inconclusive: 3.21% [signal inhibitor],–
CCOc1ccccc1NC(=O)N1CCC2(CC1)Oc1ccccc1C(=O)N2Cc1ccccc1F,inconclusive: 0.681% [signal inhibitor],–
CCOC(=O)N1CCN(S(=O)(=O)c2ccc(OCC)c(C)c2)CC1,inconclusive: 3.21% [signal inhibitor],–
COCCn1c(=O)cnc2cnc(Nc3ccccc3)nc21,"inconclusive: -0.571% [signal inhibitor] [at 11.4 µM, scaled: untreated 0%, proteasome inhibitor 100%]",–
CCc1cccc(NC(=O)c2ccc3c(c2)c(C)c(C)n3Cc2ccc(F)cc2)c1,inactive,–
Cc1ccc(OCC(=O)Nc2cccc(C(=O)OCc3cc(=O)n4c(C)csc4n3)c2)cc1,–,"inconclusive: 20 µM [signal inhibitor, partial curve]"
CC(=O)c1ccc(N2CCN(c3ncnc4c3cnn4-c3cc(Cl)ccc3C)CC2)cc1,inconclusive: 4.29% [signal inhibitor],–

Structure (SMILES),IkBa stabilization activation,Potency
O=C(c1ccc2c(c1)N(Cc1ccc(Cl)cc1)C(=O)c1ccccc1S2(=O)=O)N1CCN(c2ccccn2)CC1,inconclusive: -0.113% [signal inhibitor],–
Cn1cccc1C(=O)Nc1nc(-c2ccccn2)cs1,–,"inconclusive: 20 µM [signal inhibitor, single point]"
Cn1c(=N)c(S(=O)(=O)c2ccccc2)cc2c(=O)n3ccccc3nc21,inactive,–
O=C(Nc1cc(Cl)cc(Cl)c1)c1ccc(F)c(S(=O)(=O)N2CCN(c3ccccc3F)CC2)c1,inconclusive: 0.741% [signal inhibitor],–
Cc1cc(NC(=O)C2CCCN(S(=O)(=O)c3cccc4nsnc34)C2)ccc1Br (stereo not given),inactive,–
CCOc1ccc(NC(=O)N2CCC(N3CCCCC3)CC2)cc1,inconclusive: 0.392% [signal inhibitor],–
CCCCCCCCCCCCCCC/C=C\[C@H](O)[C@@H](NC(=O)CCCCCCCCCCCCC)OC (tested in a mixture with another compound),inactive,–
CC1CC(c2ccccc2)n2nc(NC(=O)c3ccco3)nc2N1 (stereo not given),inactive,–
Cc1ccc(CN2COc3c(Cl)cc4c(-c5ccccc5)cc(=O)oc4c3C2)cc1,inactive,–
Nc1ccccc1NC(=O)c1ccccc1,inconclusive: 8.15% [signal activator],–
Cc1ccc(NC(=O)C2CCCN(S(=O)(=O)c3c(C)noc3/C=C/N(C)C)C2)cc1F (stereo not given),inconclusive: 0.693% [signal inhibitor],–
Cc1cc(C)c(S(=O)(=O)Nc2ccccc2C(F)(F)F)c(C)c1,inconclusive: 1.53% [signal inhibitor],–
CCOc1ccc(-c2[nH]nc3c2C(c2ccc4c(c2)OCO4)C(C#N)=C(N)O3)cc1OC (stereo not given),inactive,–
COc1ccc(-n2nc3c(N4CCCC(C(=O)NCCc5ccccc5C)C4)nnc(C)c3c2C)cc1 (stereo not given),inconclusive: -2.5% [signal inhibitor],–
COc1ccc(S(=O)(=O)N(CC(=O)Nc2ccc3c(c2)OCO3)c2ccccc2OC)cc1,inconclusive: 10.2% [signal inhibitor],–
COCCn1c(C)cc(O)c(C(c2ccc(F)cc2)N2CCC(C)CC2)c1=O (stereo not given),inactive,–
Cc1nn(C)cc1CNC(=O)c1cnn2c(C(F)F)cc(C3CC3)nc12,inactive,–
O=S(=O)(c1ccc(-c2cnc(C3CC3)o2)cc1)N1CCN(c2ccccc2)CC1,inconclusive: 0.541% [signal inhibitor],–
CC1=C(C(=O)OC2CCCC2)C(c2ccccc2C(F)(F)F)CC(=O)N1 (stereo not given),inconclusive: 6.3% [signal inhibitor],–
COc1cccc(NC(=O)Cn2c(=O)n(-c3ccccc3)c(=O)c3c2c2cc(OC)ccc2n3C)c1,inconclusive: 0.573% [signal inhibitor],–
COc1ccc(C2c3c(n(C)c4ccccc34)C(=O)N2CC(=O)Nc2ccc(F)cc2)cc1 (stereo not given),–,"inconclusive: 25.1 µM [signal inhibitor, single point]"
Cc1ccc(NC(=O)C2CCCNC2=O)nc1 (stereo not given),inactive,–
COc1ccc(-c2ccc(=O)n(CC(=O)Nc3ccc(OC)c(OC)c3)n2)cc1,inconclusive: -0.906% [signal inhibitor],–
CCC(C)NC(=O)c1cnc2n(c1=O)CCS2 (stereo not given),inconclusive: 1.32% [signal inhibitor],–

Structure (SMILES),IkBa stabilization activation,Potency
CCCn1nnc(NC(=O)c2ccc(OCC)c(Cl)c2)n1,inactive,–
COc1cc(-c2nnc(SCC(=O)c3ccc(C)cc3)o2)cc(OC)c1OC,inactive,–
O=C1N(Cc2ccccc2)c2ccccc2C1(O)c1c[nH]c2ccccc12 (stereo not given),inconclusive: 2.45% [signal inhibitor],–
CCc1cccc(NC(=O)c2c(C)oc3nc(C)nc(N4CCCC4)c23)c1,inconclusive: 4.8% [signal inhibitor],–
COc1ccc(C(=O)N2CCN(C(=O)c3cc(OC)c(OC)c(OC)c3)CC2)cc1,inactive,–
COC(=O)C1CCN(c2csc3ccc(Cl)cc3c2=O)CC1,inconclusive: 10.4% [signal inhibitor],–
COc1cccc(-c2cncnc2NCc2cnc(C)cn2)c1,"inactive: 1.35% [at 11.4 µM, scaled: untreated 0%, proteasome inhibitor 100%]",–
O=C(NCCCO)c1nn(-c2ccc(Cl)cc2)nc1CO,inactive,–
CCOC(=O)c1ccc(NS(=O)(=O)c2ccc3c(c2)oc(=O)n3C)cc1,inactive,–
CCOc1ccc2oc(=O)cc(CN3CCN(c4ccccc4OC)CC3)c2c1,inconclusive: 5.63% [signal inhibitor],–
COc1cccc(NC(=O)Cn2c(=O)n(CCc3ccc(OC)c(OC)c3)c(=O)c3ccccc32)c1,inconclusive: 4.82% [signal inhibitor],–
Cc1ccc(-c2cc(C(F)F)nc(NCc3cccnc3)n2)cc1,inconclusive: 2.79% [signal inhibitor],–
COc1cc(COc2cc(N)c(Cl)cc2C(=O)CCC2CCN(CCNS(C)(=O)=O)CC2)cc(OC)c1,inconclusive: -0.453% [signal inhibitor],–
Cc1ccc(-c2nnn(CC(=O)N(CC(=O)NCc3ccccc3)c3cccc(C)c3C)n2)o1,inconclusive: 0.568% [signal inhibitor],–
CCCCOC(=O)c1ccc(Nc2ncnc3c2cnn3-c2cccc(C)c2)cc1,inconclusive: -2.48% [signal inhibitor],–
COc1ccc(-c2nc(S(=O)(=O)c3ccc(C)cc3)c(N3CCCCC3)o2)cc1,inconclusive: 1.84% [signal inhibitor],–
Cc1ccc(CNC(=O)CN2C(=O)CC(c3ccc(C)c(C)c3)=Nc3ccccc32)cc1,inconclusive: 0.586% [signal inhibitor],–
CCCn1c(CN(C)Cc2ccccc2)nc2c1c(=O)n(C)c(=O)n2C,inconclusive: 7.75% [signal inhibitor],–
Cc1cccc(CN2CCC(CNc3ncnc4onc(-c5ccc(Cl)cc5)c34)CC2)c1,inconclusive: -0.342% [signal inhibitor],–
CC1(C)c2ccccc2N2CCC(=O)NC21/C=C/c1ccco1 (stereo not given),inactive,–
CC(=O)c1cccc(NC(=O)Nc2cc3sccc3n2C)c1,inactive,–
Cn1cnc([N+](=O)[O-])c1Sc1ncnc2nc[nH]c12,inconclusive: 14%,–
